Results published in PubChem BioAssay AID485281 (National Center for Advancing Translational Sciences (NCATS), 2010).
The whole screen tested about 350,000 compounds, of which about 260 (0.074%) were called active. Inconclusive results, whose numbers are uncertain, are shown with a selection of clear calls. The call rests on the fitted dose curve; in most records, active means well fitted inhibition curve with a large enough effect; inconclusive means small, poorly fitted or top-dose-only effect; inactive means no such curve, though single readings can be large or run the other way. Potencies of inconclusive entries are doubtful fits and often do not repeat.

Molecular target: Ferritin light chain (Equus caballus) (UniProt P02791)
Assay: qHTS Assay for Identification of Novel General Anesthetics; further: nearly all actives have a fitted effect of over 20% in size
Conditions: apoferritin/1-aminoanthracene competitive binding, fluorescence; series mostly up to 77.5 µM
Summary of the method: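 Probe: 1-aminoanthracene (50% saturated, PBS). Protein: horse-spleen apoferritin, 10 uM. Incubation: 10 min, room temperature. Detection: 380 nm excitation, 535 nm emission. Analysis: normalized response, four-parameter Hill.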
Potency means the concentration at half of the fitted maximal effect; tags describe the fitted curve by direction and shape.

UniProt P02791, sequence (P02791 whole entry, looked up): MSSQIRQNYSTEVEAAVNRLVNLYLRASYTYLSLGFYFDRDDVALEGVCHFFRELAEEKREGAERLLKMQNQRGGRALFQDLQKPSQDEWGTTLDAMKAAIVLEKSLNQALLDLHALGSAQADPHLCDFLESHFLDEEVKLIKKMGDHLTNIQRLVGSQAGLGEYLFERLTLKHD

Row | SMILES | Potency
1 | Cc1ccc(/C=C/c2onc(C)c2S(=O)(=O)N2CCC(C(=O)NC(C)(C)C)CC2)cc1 | inconclusive: 12.6 µM [inhibitor, partial curve]
2 | N#CC(C#N)=Cc1cn(-c2ncc(C(F)(F)F)cc2Cl)c2ccccc12 | inactive
3 | COc1ccc(N2C(=O)CSC23C(=O)N(CC(=O)NC2CCCCC2)c2ccccc23)cc1 (configuration not stated) | inconclusive: 8.91 µM [inhibitor, partial curve]
4 | CC1CCC2C(C1)c1sc(=O)[nH]c1SC2(C)C (configuration not stated) | inconclusive: 50.1 µM [inhibitor, single point]
5 | CCOC(=O)c1[nH]c(C)c(CCC(=O)Nc2c(C)cc(C)cc2C)c1C | inactive
6 | CN(c1ccccc1C(=O)Nc1cccc([N+](=O)[O-])c1)S(C)(=O)=O | inactive
7 | CC(NC(=O)c1cc(COc2ccc3ncccc3c2)on1)c1ccc(F)cc1 (configuration not stated) | inconclusive: 50.1 µM [inhibitor, single point]
8 | O=C(Nc1ccc2c(c1)CCC2)c1cc2ccccc2o1 | inconclusive: 20 µM [inhibitor, partial curve]
9 | Cc1ccc(N=C2NC(=O)/C(=C/C=C/c3ccco3)S2)cc1 | inconclusive: 25.1 µM [inhibitor, single point]
10 | Nc1ccc(Oc2ccc(Br)cc2)cc1 | inconclusive: 25.1 µM [inhibitor, partial curve]
11 | Cc1ccc(NC(=O)CN2C(=O)C(c3ccc(F)cc3)=NC23CCCCC3)c(C)c1 | inconclusive: 8.91 µM [inhibitor, partial curve]
12 | COc1ccc(C(=O)OCC(=O)NCCCc2ccccc2)cc1[N+](=O)[O-] | inconclusive: 28.2 µM [inhibitor, partial curve]
13 | COC(=O)c1c(NC(=O)C(=O)NCCCN2CCOCC2)sc2c1CCC2 | inconclusive: 11.2 µM [inhibitor, partial curve]
14 | Clc1ccc(COn2nnc3ccccc32)c(Cl)c1 | inconclusive: 50.1 µM [inhibitor, partial curve]
15 | COC(=O)c1cc(=O)n(Cc2ccc(OC)c(OC)c2)c(=Nc2ccc(F)cc2)s1 | inconclusive: 10 µM [inhibitor, partial curve]
16 | COc1ccc(O)c(C(=O)CC(=O)c2ccccc2)c1 | inconclusive: 20 µM [inhibitor, partial curve]
17 | COc1c(C)cc(C(=O)C2CCCN(S(=O)(=O)N(C)C)C2)cc1C (configuration not stated) | inconclusive: 50.1 µM [inhibitor, partial curve, poor fit]
18 | O=c1c2c(-c3ccccc3)csc2nc2c3ccccc3c(NCCN3CCOCC3)nn12 | inactive
19 | CCCCCC(=O)NC(=S)NNC(=O)CC | inconclusive: 22.4 µM [inhibitor, partial curve]
20 | C/C1=C\[C@@H](O)C(C(C)C)C(OC(=O)c2ccc(O)cc2)C/C(C)=C/CC1 (some centres not stated) | inconclusive: 35.5 µM [inhibitor, partial curve]
21 | CCc1cccc(NC(=O)c2nnn(Cc3ccc(SC)cc3)c2N)c1 | inconclusive: 3.98 µM [inhibitor, full curve]

Row | SMILES | Potency
22 | Cc1ccc(C(C(=O)NC2CCCC2)N(Cc2ccc(F)cc2)C(=O)c2csnn2)o1 (configuration not stated) | inconclusive: 39.8 µM [inhibitor, single point]
23 | O=C(Nn1c(O)c(C=C2N=c3ccccc3=N2)sc1=S)c1cccc(Cl)c1 | inconclusive: 35.5 µM [inhibitor, partial curve]
24 | O=C(CNC(=O)c1ccccc1Br)N/N=C/c1ccccc1O | inconclusive: 3.16 µM [inhibitor, full curve]
25 | COc1ccc(N2C(=O)S[C@@H]3CS(=O)(=O)C[C@@H]32)cc1 | inactive
26 | Cc1ccc(NCc2ccco2)cc1C | inconclusive: 17.8 µM [inhibitor, partial curve]
27 | O=C(O)CC1(CC(=O)Nc2ccc3ccccc3c2)CCCCC1 | inactive
28 | Cc1cccc(OCCSCc2nc3ccccc3[nH]2)c1 | inconclusive: 35.5 µM [inhibitor, partial curve]
29 | CC1CCCC(NC(=O)COC(=O)c2ccc(S(=O)(=O)N3CCOCC3)cc2)C1C (configuration not stated) | inconclusive: 8.91 µM [inhibitor, partial curve]
30 | CCOc1ccc2nc(N(CCCN(C)C)C(=O)c3ccc(C(=O)c4ccccc4)cc3)sc2c1 | inconclusive: 31.6 µM [inhibitor, partial curve]
31 | CC1(C)CNc2cc([N+](=O)[O-])ccc2S1 | inconclusive: 15.8 µM [inhibitor, partial curve]
32 | COc1ccccc1NC(=S)NCCc1ccc(Cl)cc1 | inconclusive: 22.4 µM [inhibitor, partial curve]
33 | Fc1ccc(C2CC(c3cccs3)=NN2c2ccccc2)cc1 (configuration not stated) | inactive
34 | NC(=O)CC(NC(=O)Cc1ccc(Br)cc1)c1ccc(NC2CCN(Cc3ccccc3)CC2)c([N+](=O)[O-])c1 (configuration not stated) | inconclusive: 22.4 µM [inhibitor, partial curve]
35 | O=C(/C=C/c1ccco1)Nc1ccc(Oc2ccc(Cl)cc2)cc1 | inconclusive: 31.6 µM [inhibitor, partial curve]
36 | COc1cccc(Cn2cnc3c([N+](=O)[O-])c(C)c(C)cc32)c1 | inconclusive: 35.5 µM [inhibitor, single point]
37 | CC(C)Cn1c(N)c(C(=O)COC(=O)c2ccccc2F)c(=O)n(C)c1=O | inconclusive: 28.2 µM [inhibitor, partial curve]
38 | O=C1C2C3C=CC(C4CC34)C2C(=O)N1/N=C/c1ccc([N+](=O)[O-])o1 (configuration not stated) | inactive
39 | O=C(COC(=O)C1CC1)Nc1ccc(Oc2ccccc2)cc1 | inconclusive: 50.1 µM [inhibitor, single point]
40 | O=C1CSC(=S)N1/N=C/c1ccc(O)c([N+](=O)[O-])c1 | inconclusive: 31.6 µM [inhibitor, single point]
41 | COC(=O)c1c(N)n(-c2ccc(N3CCOCC3)cc2)c2nc3ccccc3nc12 | inconclusive: 35.5 µM [inhibitor, single point]
42 | CCN(CC(=O)NC(c1ccccc1)c1ccccc1)Cc1nc2ccccc2c(=O)[nH]1 | inconclusive: 28.2 µM [inhibitor, partial curve]
